Results published in PubChem BioAssay AID504706 (National Center for Advancing Translational Sciences (NCATS), 2011).
Among all 320,000 compounds or so, about 200 (0.062%) were called active. Inconclusive results, whose numbers are uncertain, are shown with a selection of clear calls. The call rests on the fitted dose curve; in most records, active means well fitted activation curve with a large enough effect; inconclusive means small, poorly fitted or top-dose-only effect; inactive means no such curve, though single readings can be large or run the other way. No potency is given beside an inconclusive call; the fits are too rough.

assay: qHTS assay for re-activators of p53 using a Luc reporter; details: H1299 p53-A138V BP100-luciferase reporter, luminescence, 24 h; series mostly up to 92.2 µM; further: nearly all actives have a fitted effect of over 45% in size
In short: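 H1299 (p53-null), stable ts p53-A138V + BP100-Luc; 1000 cells/well, Opti-MEM/10% FBS; cpd 4 pt, 1:5; 24 h, 37 deg C, 5% CO2; detection reagent 10 min RT; luminescence.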
Potency means the concentration at half of the fitted maximal effect; tags describe the fitted curve by direction and shape.

Structure (SMILES)	Potency
COc1cc(CN(C)CCc2ccccn2)cc(OC)c1OC	inactive
COc1ccc(-c2nnn(Cc3ccccc3)n2)cc1	inconclusive [activator, partial curve, poor fit]
CCN(CC)c1ccc(S(=O)(=O)N2CCOCC2)cc1NC(=O)CN1C(=O)NC2(CCC(C)CC2)C1=O (configuration not stated)	inactive
CCOC(=O)[C@H]1[C@H]2COc3ccc(C)cc3[C@@H]2N2C(=O)c3cc(Cl)ccc3NC(=O)[C@@]12C	inactive
Cc1cc(C)n(CCOc2ccc(Br)cc2)n1	inactive
CCOc1ccc(NC(=S)NN2C(C)CCCC2C)cc1 (configuration not stated)	inactive
Cc1cc2c(N=O)c(NO)ccc2[nH]1	inconclusive [activator, partial curve, poor fit]
NS(=O)(=O)c1ccc(N/N=C/c2cn(-c3ccccc3)nc2-c2cccs2)c([N+](=O)[O-])c1	inactive
Cc1noc(C)c1-c1csc(N2CCC(C(N)=O)CC2)n1	inconclusive [activator, single point]
COc1cc(OC)cc(C(=O)Nc2nnc(NC(=S)Nc3ccccc3)s2)c1	inactive
O=C(N/N=C/c1ccco1)Nc1ccccc1	inconclusive [activator, full curve, poor fit]
COc1ccc2[nH]c3c(c2c1)CCN1C(=O)C(CC(=O)NCCC2=CCCCC2)C[C@H](C(=O)N2CCCCC2)[C@@]31C (some centres not stated)	inactive
C/C(=N\NC(=S)NC(C)C)c1ccc2c(c1)OCCO2	inconclusive [activator, single point]
CC(=O)Nc1cc(OC(C)=O)c2nonc2c1OC(C)=O	inactive
Nc1nc(Nc2ccccc2)nc(N2CCCC2)c1[N+](=O)[O-]	inconclusive [activator, full curve, poor fit]
COc1cccc(C(=O)NC2=NCCS2)c1OC	inconclusive [activator, full curve, poor fit]
CC1(C(=O)OCC(=O)c2c[nH]c3ccccc23)CC1(Cl)Cl (configuration not stated)	inconclusive [activator, partial curve, poor fit]
N=C1N(/N=C/c2ccccc2)C(=Nc2ccccc2)C(=S)N1c1ccccc1	inconclusive [activator, partial curve, poor fit]
O=C(CCN1C(=O)/C(=C/c2ccccc2Cl)SC1=S)Nc1ccccn1	inactive
CN(C)C(=O)COc1ccc2cc(-c3ccccc3)c(=O)oc2c1	inconclusive [activator, partial curve, poor fit]
N#Cc1nc(-c2cccs2)oc1NCCc1ccccc1	inconclusive [activator, partial curve, poor fit]
COc1ccc(S(=O)(=O)N(C)C)cc1NC(=O)CSC(C)C(=O)Nc1cc(C)on1 (configuration not stated)	inconclusive [activator, single point]
CSc1nc2ccc(NC(=O)c3ccco3)cc2s1	inconclusive [activator, partial curve, poor fit]
COc1ccc(-c2ccc(C#N)c(SCC(=O)OCc3ccccc3)n2)cc1OC	inactive

Structure (SMILES)	Potency
COc1cccc(NC(=S)Nc2ccc(F)cc2)c1	inconclusive [activator, full curve, poor fit]
CCOC(=O)N1CCN(CC(=O)N2c3ccccc3Sc3ccccc32)CC1	inactive
CCOC(=O)C1=C(C)NC(=O)NC1c1ccc(Br)o1 (configuration not stated)	inactive
c1ccc(CCNc2nc(-c3cccnc3)cs2)cc1	inconclusive [activator, partial curve, poor fit]
Cc1ccc(C(=O)CCC(=O)Nc2ncccc2O)cc1	inconclusive [activator, partial curve, poor fit]
O=c1sc(N2CCN(c3ccccc3F)CC2)nc2ccsc12	inconclusive [activator, full curve, poor fit]
O=C(O)C1CCN(c2nc(-c3ccccc3)c3cc(Br)ccc3n2)CC1	inactive
CN(c1ccccc1)S(=O)(=O)c1ccc(NC(=O)c2cccs2)cc1	inactive
COC(=O)CN1C(=S)N(c2ccc(Cl)cc2)C(=O)C1CC(=O)Nc1ccc(Cl)cc1 (configuration not stated)	inactive
CCC1CCc2sc(C(=O)NCC3CCCO3)cc2C1 (configuration not stated)	inconclusive [activator, full curve, poor fit]
CCOc1ccc2cc(C#N)c(SCC(=O)N3CCOCC3)nc2c1	inconclusive [activator, partial curve, poor fit]
COCCn1c(=S)[nH]c2cc(C(=O)N3CCN(c4cccc(Cl)c4)CC3)ccc2c1=O	inactive
c1ccc(-c2noc(CN3CCc4sccc4C3)n2)cc1	inconclusive [activator, single point]
COc1ccccc1/C=C/c1nc(S(=O)(=O)c2ccccc2)c(N(C)C)o1	inconclusive [activator, single point]
CCOC(=O)C1CCN(Cc2ccc(O)c(OC)c2)CC1	inconclusive [activator, full curve, poor fit]
O=C(NC12CC3CC(CC(C3)C1)C2)c1ccc(-c2ccc(Br)cc2)o1	inconclusive [activator, partial curve, poor fit]
S=C(Nc1cccc2ccccc12)NC1CCCCC1	inconclusive [activator, partial curve, poor fit]
N#CCCN/N=C(/Cc1nc2ccccc2[nH]1)c1ccc(Cl)cc1	inconclusive [activator, partial curve, poor fit]
Cc1ccc(N(C)S(=O)(=O)c2ccc(C)cc2)cc1	inactive
Cc1ccc(NC(=O)C2C3CCC(O3)C2C(=O)O)cc1Cl (configuration not stated)	inconclusive [activator, partial curve, poor fit]
Fc1ccccc1/C=N/Nc1ncnc2nc[nH]c12	inconclusive [activator, partial curve, poor fit]
Cc1cccc(-c2c3c(=O)n(C)c(=O)n(C)c3cn2CCO)c1	inactive
Clc1cccc(/C=N/Nc2ncnc3ccccc23)c1	inconclusive [activator, partial curve, poor fit]
Clc1ccc(-c2nc3cnccn3c2Nc2ccc3c(c2)OCO3)cc1	inactive

Structure (SMILES)	Potency
Cn1ccsc1=NC(=O)c1ccccc1F	inactive
CCNC(=S)NCc1ccc(F)cc1	inactive
Cc1cc(/C=C2\SC(=S)NC2=O)c(C)n1C	inactive
O=C1/C(=C\c2cccc(O)c2)SC(=S)N1Cc1ccccc1	inconclusive [activator, full curve, poor fit]
COc1ccc(C(=O)NC(=S)NNC(=O)COc2ccccc2)cc1	inactive
O=C(CSc1nc2ccsc2c(=O)n1NC(=O)c1ccccc1)Nc1nccs1	inconclusive [activator, partial curve, poor fit]
CC(c1ccccc1)n1c(-c2ccncc2)n[nH]c1=S (configuration not stated)	inactive
O=C(/C=C/c1ccccc1)N1CCC(c2ccccc2)C1 (configuration not stated)	inconclusive [activator, full curve, poor fit]
O=C(c1cc2c(ccc3ccccc32)o1)N1CCCCC1	inconclusive [activator, full curve, poor fit]
Cn1cccc1/C=N/NC(=O)c1ccccn1	inactive
Cc1nc2cc(-c3ccc(Cl)cc3)nn2c(C)c1CCC(=O)NC(C)c1ccc2c(c1)OCCO2 (configuration not stated)	inactive
COc1ccc(CN(C(=O)c2snc(C(N)=O)c2N)C(C(=O)NC2CCCC2)c2cc(OC)ccc2OC)cc1 (configuration not stated)	inactive
Nc1nonc1-c1noc(-c2ccccc2Br)n1	inconclusive [activator, full curve, poor fit]
COc1cccc(NC(=O)c2ocnc2C)c1	inconclusive [activator, partial curve, poor fit]
CCc1ccc(C(=O)N/N=C/c2ccc(Cl)cc2Cl)nc1	inactive
O=C(c1ccc(N2CCOCC2)cc1)c1cccs1	inconclusive [activator, full curve, poor fit]
O=[N+]([O-])c1ccc(/C=N/N2CCCCC2)cc1	inconclusive [activator, partial curve, poor fit]
O=C(Nc1ccc(-c2noc(COc3ccccc3Cl)n2)cc1)c1ccco1	inconclusive [activator, full curve, poor fit]
Nc1ccccc1SSc1ccccc1N	inconclusive [activator, full curve, poor fit]
COc1cc(C2C(C#N)=C(N)N(Nc3ccccc3)C3=C2C(=O)CC(C)(C)C3)ccc1OCc1ccccc1 (configuration not stated)	inconclusive [activator, single point]
COc1ccc(-n2nc(C(=O)NCC(=O)N3CCN(c4ccccc4)CC3)c3ccccc3c2=O)c(OC)c1	inconclusive [activator, full curve, poor fit]
O=C(CCNC(=O)c1ccccc1Cl)Nc1nc2ccc(F)cc2s1	inconclusive [activator, full curve, poor fit]
N#Cc1c(/N=C/c2ccc(Br)s2)sc2c1CCC2	inconclusive [activator, partial curve, poor fit]
Cc1ccc(C)c(NC(=S)c2nc3ccccc3s2)c1	inconclusive [activator, full curve, poor fit]
